Reference: a collection of fitness landscapes (doi:10.1016/j.celrep.2020.107928)
The full ranking holds about 81,000 sequences; the median of “one-hybrid fitness for binding NBS DNA” is about -0.1, and the highest 2% start at about 0.36. The list shows a part of the results.

B1: Caulobacter ParB omega fusion; a variant is named by its letters at X, in order, B8GW30 (parent)
chain: MESVVVGEPGMSEGRRGLGRGLSALLGEVDAAPAQAPGEQLGGSREAPIEILQRNPDQPRRTFREEDLEDLSNSIREKGVLQPILVRPSPDTAGEYQIVAGERAWRAAQRAGLKTVPIMVRELDDLAVLEIGIIENVQRADLNVLEEALSYKVLMEKFERTQENIAQTIGKSXSHVANXMRLLXLPDEVQSYLVSGELTAXHARAIAAAADPVALAKQIIEGGLSVRETEALARKAPNLSAGKSKGGRPPRVKDTDTQALESDLSSVLGLDVSIDHRGSTGTLTITYATLEQLDDLCNRLTRGI

Variants of: B1
Assay: one-hybrid fitness for binding NBS DNA (the Noc-binding site; scaled: cognate 1, non-cognate 0); higher = stronger binding
Settings: with NBS DNA site
How it was run: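 Bacterial one-hybrid selection in E. coli USO rpoZ- hisB- pyrF- with a HIS3 reporter carrying the site 19 bp from the promoter, screening Caulobacter ParB libraries with four specificity codons randomised (NNS). Cells grew 48 hours at 37°C on M9-minus-histidine plus 0.1 mM IPTG and 5 mM 3-AT. Plasmids before and after selection were Illumina-sequenced, three replicate libraries pooled, and variants under 10 reads dropped. Fitness is the log change in variant-to-wild-type read ratio, rescaled to cognate 1, non-cognate 0.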

QFAR and CINV cannot be ordered by “one-hybrid fitness for binding NBS DNA” value: ≤ 0.2 for the first, ≤ 0.2 for the second.

LYSC and RTVI cannot be ordered by “one-hybrid fitness for binding NBS DNA” value: ≤ 0.2 for the first, ≤ 0.2 for the second.

Compared with TCRR, LPND is lower in “one-hybrid fitness for binding NBS DNA” value: 0.333 for the first, ≤ 0.2 for the second.

LVFY and RNDI cannot be ordered by “one-hybrid fitness for binding NBS DNA” value: ≤ 0.2 for the first, ≤ 0.2 for the second.

MTRV and SKVG cannot be ordered by “one-hybrid fitness for binding NBS DNA” value: ≤ 0.2 for the first, ≤ 0.2 for the second.

TTPY and CEAS cannot be ordered by “one-hybrid fitness for binding NBS DNA” value: ≤ 0.2 for the first, ≤ 0.2 for the second.

LSYH and GMRG cannot be ordered by “one-hybrid fitness for binding NBS DNA” value: ≤ 0.2 for the first, ≤ 0.2 for the second.

VAQS and WLNV cannot be ordered by “one-hybrid fitness for binding NBS DNA” value: ≤ 0.2 for the first, ≤ 0.2 for the second.

RFMH and KQNV cannot be ordered by “one-hybrid fitness for binding NBS DNA” value: ≤ 0.2 for the first, ≤ 0.2 for the second.

SHFV and ATLK cannot be ordered by “one-hybrid fitness for binding NBS DNA” value: ≤ 0.2 for the first, ≤ 0.2 for the second.

PRGI and AHYC cannot be ordered by “one-hybrid fitness for binding NBS DNA” value: ≤ 0.2 for the first, ≤ 0.2 for the second.

MMRR and PTAH cannot be ordered by “one-hybrid fitness for binding NBS DNA” value: ≤ 0.2 for the first, ≤ 0.2 for the second.

THQD and WKPS cannot be ordered by “one-hybrid fitness for binding NBS DNA” value: ≤ 0.2 for the first, ≤ 0.2 for the second.

LYFG and SVVK cannot be ordered by “one-hybrid fitness for binding NBS DNA” value: ≤ 0.2 for the first, ≤ 0.2 for the second.

TAAS and ETLC cannot be ordered by “one-hybrid fitness for binding NBS DNA” value: ≤ 0.2 for the first, ≤ 0.2 for the second.

NYLG and EKQI cannot be ordered by “one-hybrid fitness for binding NBS DNA” value: ≤ 0.2 for the first, ≤ 0.2 for the second.

PIMS and DKAG cannot be ordered by “one-hybrid fitness for binding NBS DNA” value: ≤ 0.2 for the first, ≤ 0.2 for the second.

TPTW and LVGG cannot be ordered by “one-hybrid fitness for binding NBS DNA” value: ≤ 0.2 for the first, ≤ 0.2 for the second.

YFSA and LHMN cannot be ordered by “one-hybrid fitness for binding NBS DNA” value: ≤ 0.2 for the first, ≤ 0.2 for the second.

CGPF and NDSG cannot be ordered by “one-hybrid fitness for binding NBS DNA” value: ≤ 0.2 for the first, ≤ 0.2 for the second.

Compared with RRRK, WRET is lower in “one-hybrid fitness for binding NBS DNA” value: 0.41 for the first, ≤ 0.2 for the second.

CLHH and RMAK cannot be ordered by “one-hybrid fitness for binding NBS DNA” value: ≤ 0.2 for the first, ≤ 0.2 for the second.

VCAR and TNHT cannot be ordered by “one-hybrid fitness for binding NBS DNA” value: ≤ 0.2 for the first, ≤ 0.2 for the second.

TILF and SQYQ cannot be ordered by “one-hybrid fitness for binding NBS DNA” value: ≤ 0.2 for the first, ≤ 0.2 for the second.

SLCD and NTFR cannot be ordered by “one-hybrid fitness for binding NBS DNA” value: ≤ 0.2 for the first, ≤ 0.2 for the second.

GETI and PRTY cannot be ordered by “one-hybrid fitness for binding NBS DNA” value: ≤ 0.2 for the first, ≤ 0.2 for the second.

TRSY and YWRY cannot be ordered by “one-hybrid fitness for binding NBS DNA” value: ≤ 0.2 for the first, ≤ 0.2 for the second.

PPVM and MAYG cannot be ordered by “one-hybrid fitness for binding NBS DNA” value: ≤ 0.2 for the first, ≤ 0.2 for the second.

ILEG and RYPY cannot be ordered by “one-hybrid fitness for binding NBS DNA” value: ≤ 0.2 for the first, ≤ 0.2 for the second.

MWST and WSKY cannot be ordered by “one-hybrid fitness for binding NBS DNA” value: ≤ 0.2 for the first, ≤ 0.2 for the second.

HETC and PRNL cannot be ordered by “one-hybrid fitness for binding NBS DNA” value: ≤ 0.2 for the first, ≤ 0.2 for the second.

YEHT and NALT cannot be ordered by “one-hybrid fitness for binding NBS DNA” value: ≤ 0.2 for the first, ≤ 0.2 for the second.

GDCS and PRDC cannot be ordered by “one-hybrid fitness for binding NBS DNA” value: ≤ 0.2 for the first, ≤ 0.2 for the second.

LIDI and SAQA cannot be ordered by “one-hybrid fitness for binding NBS DNA” value: ≤ 0.2 for the first, ≤ 0.2 for the second.

PWES and AVVA cannot be ordered by “one-hybrid fitness for binding NBS DNA” value: ≤ 0.2 for the first, ≤ 0.2 for the second.

KCAD and VHYM cannot be ordered by “one-hybrid fitness for binding NBS DNA” value: ≤ 0.2 for the first, ≤ 0.2 for the second.

KRAL and IIDT cannot be ordered by “one-hybrid fitness for binding NBS DNA” value: ≤ 0.2 for the first, ≤ 0.2 for the second.

LQPW and PLVN cannot be ordered by “one-hybrid fitness for binding NBS DNA” value: ≤ 0.2 for the first, ≤ 0.2 for the second.

NVFD and PTGF cannot be ordered by “one-hybrid fitness for binding NBS DNA” value: ≤ 0.2 for the first, ≤ 0.2 for the second.

LELK and QAEL cannot be ordered by “one-hybrid fitness for binding NBS DNA” value: ≤ 0.2 for the first, ≤ 0.2 for the second.

QMYF and HTIR cannot be ordered by “one-hybrid fitness for binding NBS DNA” value: ≤ 0.2 for the first, ≤ 0.2 for the second.

VGGV and GTPL cannot be ordered by “one-hybrid fitness for binding NBS DNA” value: ≤ 0.2 for the first, ≤ 0.2 for the second.

AQRN and MMYS cannot be ordered by “one-hybrid fitness for binding NBS DNA” value: ≤ 0.2 for the first, ≤ 0.2 for the second.

YAHE and GQSI cannot be ordered by “one-hybrid fitness for binding NBS DNA” value: ≤ 0.2 for the first, ≤ 0.2 for the second.

NCLR and GFPY cannot be ordered by “one-hybrid fitness for binding NBS DNA” value: ≤ 0.2 for the first, ≤ 0.2 for the second.

SILG and KLDR cannot be ordered by “one-hybrid fitness for binding NBS DNA” value: ≤ 0.2 for the first, ≤ 0.2 for the second.

NRLW and KFVN cannot be ordered by “one-hybrid fitness for binding NBS DNA” value: ≤ 0.2 for the first, ≤ 0.2 for the second.

AKHP and LFAM cannot be ordered by “one-hybrid fitness for binding NBS DNA” value: ≤ 0.2 for the first, ≤ 0.2 for the second.

First: PIYD
Second: QTTC
The “one-hybrid fitness for binding NBS DNA” value of the first is lower: ≤ 0.2 for the first, 0.223 for the second.

YFSK and LHKM cannot be ordered by “one-hybrid fitness for binding NBS DNA” value: ≤ 0.2 for the first, ≤ 0.2 for the second.

YDSR and TKHQ cannot be ordered by “one-hybrid fitness for binding NBS DNA” value: ≤ 0.2 for the first, ≤ 0.2 for the second.

IPCL and CLCY cannot be ordered by “one-hybrid fitness for binding NBS DNA” value: ≤ 0.2 for the first, ≤ 0.2 for the second.

Compared with EKGG, QYKF is higher in “one-hybrid fitness for binding NBS DNA” value: ≤ 0.2 for the first, 0.229 for the second.

WLTR and FAYG cannot be ordered by “one-hybrid fitness for binding NBS DNA” value: ≤ 0.2 for the first, ≤ 0.2 for the second.

Compared with FNLA, SWYS is lower in “one-hybrid fitness for binding NBS DNA” value: 0.335 for the first, ≤ 0.2 for the second.

Compared with LLMS, VRAT is higher in “one-hybrid fitness for binding NBS DNA” value: ≤ 0.2 for the first, 0.233 for the second.

RLQQ and IYNG cannot be ordered by “one-hybrid fitness for binding NBS DNA” value: ≤ 0.2 for the first, ≤ 0.2 for the second.

RMLK and YVCR cannot be ordered by “one-hybrid fitness for binding NBS DNA” value: ≤ 0.2 for the first, ≤ 0.2 for the second.

TTMK and WLSG cannot be ordered by “one-hybrid fitness for binding NBS DNA” value: ≤ 0.2 for the first, ≤ 0.2 for the second.

KMEF and ANVC cannot be ordered by “one-hybrid fitness for binding NBS DNA” value: ≤ 0.2 for the first, ≤ 0.2 for the second.

IPGK and QAAL cannot be ordered by “one-hybrid fitness for binding NBS DNA” value: ≤ 0.2 for the first, ≤ 0.2 for the second.

HAQG and MNIL cannot be ordered by “one-hybrid fitness for binding NBS DNA” value: ≤ 0.2 for the first, ≤ 0.2 for the second.

PTKH and MFSG cannot be ordered by “one-hybrid fitness for binding NBS DNA” value: ≤ 0.2 for the first, ≤ 0.2 for the second.

LSAL and YCQN cannot be ordered by “one-hybrid fitness for binding NBS DNA” value: ≤ 0.2 for the first, ≤ 0.2 for the second.

Compared with IFME, RTRC is higher in “one-hybrid fitness for binding NBS DNA” value: ≤ 0.2 for the first, 0.351 for the second.

AAVR and MPIR cannot be ordered by “one-hybrid fitness for binding NBS DNA” value: ≤ 0.2 for the first, ≤ 0.2 for the second.

LAGI and IPNF cannot be ordered by “one-hybrid fitness for binding NBS DNA” value: ≤ 0.2 for the first, ≤ 0.2 for the second.

PDFC and LKLP cannot be ordered by “one-hybrid fitness for binding NBS DNA” value: ≤ 0.2 for the first, ≤ 0.2 for the second.

NIWR and SGAC cannot be ordered by “one-hybrid fitness for binding NBS DNA” value: ≤ 0.2 for the first, ≤ 0.2 for the second.

KVFY and LSYI cannot be ordered by “one-hybrid fitness for binding NBS DNA” value: ≤ 0.2 for the first, ≤ 0.2 for the second.

FKYG and IVHT cannot be ordered by “one-hybrid fitness for binding NBS DNA” value: ≤ 0.2 for the first, ≤ 0.2 for the second.

Going from RQNA to VLKW, the “one-hybrid fitness for binding NBS DNA” value falls from 0.251 to ≤ 0.2.

HSWG and VREV cannot be ordered by “one-hybrid fitness for binding NBS DNA” value: ≤ 0.2 for the first, ≤ 0.2 for the second.

SICC and MTFN cannot be ordered by “one-hybrid fitness for binding NBS DNA” value: ≤ 0.2 for the first, ≤ 0.2 for the second.

EQAI and DGFS cannot be ordered by “one-hybrid fitness for binding NBS DNA” value: ≤ 0.2 for the first, ≤ 0.2 for the second.

RGIW and CGTD cannot be ordered by “one-hybrid fitness for binding NBS DNA” value: ≤ 0.2 for the first, ≤ 0.2 for the second.

In the case of RATE, the “one-hybrid fitness for binding NBS DNA” value is reported as ≤ 0.2.
